# Experimental data published in patent publication US20230159603A1 (XILIO DEVELOPMENT, published 2023).
# Molecular target: human IL-12 receptor (IL-12Rβ1 and IL-12Rβ2) on HEK-Blue IL-12 reporter cells (human, UniProt P42701 24-662; Q99665 24-862)
# Test: cell-based or functional assay
Binder,Aklusion (Run 1),Aklusion (Run 2),Average Aklusion
AK670 (Fc fusion) chain 1: [human IgG1 Fc with changes left out here]GGSPGKIDACKRGDVTVKPSHVILLGSTVNITCSLKPRQGCFHYSRRNKLILYKFDRRINFHHGHSLNSQVTGLPLGTTLFVCKLACINSDEIQICGAEIFVGVAPEQPQNLSCIQKGEQGTVACTWERGRDTHLYTEYTLQLSGPKNLTWQKQCKDIYCDYLDFGINLTPESPESNFTAKVTAVNSLGSSSSLPSTFTFLDIVRPLPPWDIRIKFQKASVSRSTLYWRDEGLVLLNRLRYRPSNSRLWNMVNVTKAKGRHDLLDLKPFTEYEFQISSKLHLYKGSWSDWSESLRAQTPEE chain 2: DKTHTCPPCPAPELLGGPSVFLFPPKPKDTLMISRTPEVTCVVVDVSHEDPEVKFNWYVDGVEVHNAKTKPREEQYASTYRVVSVLTVLHQDWLNGKEYKCKVSNKALPAPIEKTISKAKGQPREPQVYTLPPCRDELTKNQVSLWCLVKGFYPSDIAVEWESNGQPENNYKTTPPVLDSDGSFFLYSKLTVDKSRWQQGNVFSCSVMHEALHNHYTQKSLSLSPGGGSGGSGGSISSGLLSGRSSGPIWELKKDVYVVELDWYPDAPGEMVVLTCDTPEEDGITWTLDQSSEVLGSGKTLTIQVKEFGDAGQYTCHKGGEVLSHSLLLLHKKEDGIWSTDILKDQKEPKNKTFLRCEAKNYSGRFTCWWLTTISTDLTFSVKSSRGSSDPQGVTCGAATLSAERVRGDNKEYEYSVECQEDSACPAAEESLPIEVMVDAVHKLKYENYTSSFFIRDIIKPDPPKNLQLKPLKNSRQVEVSWEYPDTWSTPHSYFSLTFSVQVQGKDNTEGRVFTDKTSATVICRKNASISVRAQDRYYSSSWSEWASVPCSGGGGSGGGGSGGGGSRNLPVATPDPGMFPCLHHSQNLLRAVSNMLQKARQTLEFYPCTSEEIDHEDITKDKTSTVEACLPLELTKNESCLNSRETSFITNGSCLASRKTSFMMALCLSSIYEDLKMYQVEFKTMNAKLLMDPKRQIFLDQNMLAVIDELMQALNFNSETVPQKSSLEEPDFYKTKIKLCILLHAFRIRAVTIDRVMSYLNAS,30.1 fold,35 fold,32.5 fold
AK918 (Fc fusion) chain 1: [human IgG1 Fc with changes left out here]PGGSGPKIDACKRGDVTVKPSHVILLGSTVNITCSLKPRQGCFHYSRRNKLILYKFDRRINFHHGHSLNSQVTGLPLGTTLFVCKLACINSDEIQICGAEIFVGVAPEQPQNLSCIQKGEQGTVACTWERGRDTHLYTEYTLQLSGPKNLTWQKQCKDIYCDYLDFGINLTPESPESNFTAKVTAVNSLGSSSSLPSTFTFLDIVRPLPPWDIRIKFQKASVSRSTLYWRDEGLVLLNRLRYRPSNSRLWNMVNVTKAKGRHDLLDLKPFTEYEFQISSKLHLYKGSWSDWSESLRAQTPEE chain 2: DKTHTCPPCPAPELLGGPSVFLFPPKPKDTLMISRTPEVTCVVVDVSHEDPEVKFNWYVDGVEVHNAKTKPREEQYASTYRVVSVLTVLHQDWLNGKEYKCKVSNKALPAPIEKTISKAKGQPREPQVYTLPPCRDELTKNQVSLWCLVKGFYPSDIAVEWESNGQPENNYKTTPPVLDSDGSFFLYSKLTVDKSRWQQGNVFSCSVMHEALHNHYTQKSLSLSPGGGSGGSDSGGFMLTSGPIWELKKDVYVVELDWYPDAPGEMVVLTCDTPEEDGITWTLDQSSEVLGSGKTLTIQVKEFGDAGQYTCHKGGEVLSHSLLLLHKKEDGIWSTDILKDQKEPKNKTFLRCEAKNYSGRFTCWWLTTISTDLTFSVKSSRGSSDPQGVTCGAATLSAERVRGDNKEYEYSVECQEDSACPAAEESLPIEVMVDAVHKLKYENYTSSFFIRDIIKPDPPKNLQLKPLKNSRQVEVSWEYPDTWSTPHSYFSLTFSVQVQGKDNTEGRVFTDKTSATVICRKNASISVRAQDRYYSSSWSEWASVPCSGGGGSGGGGSGGGGSRNLPVATPDPGMFPCLHHSQNLLRAVSNMLQKARQTLEFYPCTSEEIDHEDITKDKTSTVEACLPLELTKNESCLNSRETSFITNGSCLASRKTSFMMALCLSSIYEDLKMYQVEFKTMNAKLLMDPKRQIFLDQNMLAVIDELMQALNFNSETVPQKSSLEEPDFYKTKIKLCILLHAFRIRAVTIDRVMSYLNAS,117 fold,126 fold,122 fold

# More lines, now with the values ahead:
Aklusion (Run 1),Aklusion (Run 2),Average Aklusion,Binder
48 fold,44.7 fold,46.3 fold,AK922 (Fc fusion) chain 1: [human IgG1 Fc with changes left out here]GGSGGGSGKIDACKRGDVTVKPSHVILLGSTVNITCSLKPRQGCFHYSRRNKLILYKFDRRINFHHGHSLNSQVTGLPLGTTLFVCKLACINSDEIQICGAEIFVGVAPEQPQNLSCIQKGEQGTVACTWERGRDTHLYTEYTLQLSGPKNLTWQKQCKDIYCDYLDFGINLTPESPESNFTAKVTAVNSLGSSSSLPSTFTFLDIVRPLPPWDIRIKFQKASVSRSTLYWRDEGLVLLNRLRYRPSNSRLWNMVNVTKAKGRHDLLDLKPFTEYEFQISSKLHLYKGSWSDWSESLRAQTPEE chain 2: DKTHTCPPCPAPELLGGPSVFLFPPKPKDTLMISRTPEVTCVVVDVSHEDPEVKFNWYVDGVEVHNAKTKPREEQYASTYRVVSVLTVLHQDWLNGKEYKCKVSNKALPAPIEKTISKAKGQPREPQVYTLPPCRDELTKNQVSLWCLVKGFYPSDIAVEWESNGQPENNYKTTPPVLDSDGSFFLYSKLTVDKSRWQQGNVFSCSVMHEALHNHYTQKSLSLSPGGGSGGSISSGLLSGRSSGPIWELKKDVYVVELDWYPDAPGEMVVLTCDTPEEDGITWTLDQSSEVLGSGKTLTIQVKEFGDAGQYTCHKGGEVLSHSLLLLHKKEDGIWSTDILKDQKEPKNKTFLRCEAKNYSGRFTCWWLTTISTDLTFSVKSSRGSSDPQGVTCGAATLSAERVRGDNKEYEYSVECQEDSACPAAEESLPIEVMVDAVHKLKYENYTSSFFIRDIIKPDPPKNLQLKPLKNSRQVEVSWEYPDTWSTPHSYFSLTFSVQVQGKDNTEGRVFTDKTSATVICRKNASISVRAQDRYYSSSWSEWASVPCSGGGGSGGGGSGGGGSRNLPVATPDPGMFPCLHHSQNLLRAVSNMLQKARQTLEFYPCTSEEIDHEDITKDKTSTVEACLPLELTKNESCLNSRETSFITNGSCLASRKTSFMMALCLSSIYEDLKMYQVEFKTMNAKLLMDPKRQIFLDQNMLAVIDELMQALNFNSETVPQKSSLEEPDFYKTKIKLCILLHAFRIRAVTIDRVMSYLNAS
63.4 fold,48.2 fold,55.8 fold,AK923 (Fc fusion) chain 1: [human IgG1 Fc with changes left out here]GGSGGGSGKIDACKRGDVTVKPSHVILLGSTVNITCSLKPRQGCFHYSRRNKLILYKFDRRINFHHGHSLNSQVTGLPLGTTLFVCKLACINSDEIQICGAEIFVGVAPEQPQNLSCIQKGEQGTVACTWERGRDTHLYTEYTLQLSGPKNLTWQKQCKDIYCDYLDFGINLTPESPESNFTAKVTAVNSLGSSSSLPSTFTFLDIVRPLPPWDIRIKFQKASVSRSTLYWRDEGLVLLNRLRYRPSNSRLWNMVNVTKAKGRHDLLDLKPFTEYEFQISSKLHLYKGSWSDWSESLRAQTPEE chain 2: DKTHTCPPCPAPELLGGPSVFLFPPKPKDTLMISRTPEVTCVVVDVSHEDPEVKFNWYVDGVEVHNAKTKPREEQYASTYRVVSVLTVLHQDWLNGKEYKCKVSNKALPAPIEKTISKAKGQPREPQVYTLPPCRDELTKNQVSLWCLVKGFYPSDIAVEWESNGQPENNYKTTPPVLDSDGSFFLYSKLTVDKSRWQQGNVFSCSVMHEALHNHYTQKSLSLSPGGGSGGSGGSISSGLLSGRSSGPIWELKKDVYVVELDWYPDAPGEMVVLTCDTPEEDGITWTLDQSSEVLGSGKTLTIQVKEFGDAGQYTCHKGGEVLSHSLLLLHKKEDGIWSTDILKDQKEPKNKTFLRCEAKNYSGRFTCWWLTTISTDLTFSVKSSRGSSDPQGVTCGAATLSAERVRGDNKEYEYSVECQEDSACPAAEESLPIEVMVDAVHKLKYENYTSSFFIRDIIKPDPPKNLQLKPLKNSRQVEVSWEYPDTWSTPHSYFSLTFSVQVQGKDNTEGRVFTDKTSATVICRKNASISVRAQDRYYSSSWSEWASVPCSGGGGSGGGGSGGGGSRNLPVATPDPGMFPCLHHSQNLLRAVSNMLQKARQTLEFYPCTSEEIDHEDITKDKTSTVEACLPLELTKNESCLNSRETSFITNGSCLASRKTSFMMALCLSSIYEDLKMYQVEFKTMNAKLLMDPKRQIFLDQNMLAVIDELMQALNFNSETVPQKSSLEEPDFYKTKIKLCILLHAFRIRAVTIDRVMSYLNAS
